# Counter-ions that a name gives are not always drawn. Over roughly 2,000 compounds, “fractional viability relative to vehicle” has its median near 0.91; the lowest 2% begin near 0.045. This is one part of the list.
# System: TYKNU
# Assay: fractional viability relative to vehicle; TYKNU is a high-grade serous ovarian cancer line; higher = less growth inhibition
# Details: 72 h
# Procedure, shortened: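 TYKNU control cells or lentiCRISPRv2 knockout derivatives were seeded at 500 cells per well into drug-stamped 384-well plates holding a ~2100-compound library at 2 or 10 μM, in duplicate. Cells were grown at 37 °C in 5% CO2 in RPMI 1640 with 10% FBS, and drug treatment lasted 72 h. Viability was read by Cell Titer Glo luminescence. Duplicate treatment wells were averaged and normalised to duplicate control wells from the same plate position.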
# [1] = 2uM, genotype: DNM1L knockout (sgDNM1L #1)
# [2] = 2uM, genotype: sgCTRLA1 (non-targeting control)
# [3] = 10uM, genotype: DNM1L knockout (sgDNM1L #1)
# [4] = 10uM, genotype: sgCTRLA1 (non-targeting control)
SMILES,fractional viability [1],fractional viability [2],fractional viability [3],fractional viability [4]
CN(C)[C@@H](CCOc1cccc2ccccc12)c1ccccc1 [Dapoxetine HCl],0.944,1.07,0.678,0.851
CNC(=O)c1ccc(N2C(=S)N(c3cnc(C#N)c(C(F)(F)F)c3)C(=O)C23CCC3)cc1F,1.03,1.19,0.814,0.957
O=C(c1ccc(OCCN2CCCCC2)cc1)c1c(-c2ccc(O)cc2)sc2cc(O)ccc12 [Raloxifene HCl],1.09,0.991,0.712,0.651
CCOc1cc(N2CCC(O)CC2)ccc1Nc1ncc2c(n1)N(C)c1ccccc1C(=O)N2C,0.651,0.842,0.539,0.531
Cc1ccc(NC(=O)Nc2cc(C(F)(F)F)ccc2F)cc1Nc1ccc2c(c1)NC(=O)/C2=C\c1ccc[nH]1,0.873,0.905,0.918,0.825
CNC(=O)c1ccccc1Sc1ccc2c(/C=C/c3ccccn3)n[nH]c2c1 [Axitinib],0.904,0.849,0.563,0.549
Fc1ccc2[nH]ccc2c1-c1nc(N2CCOCC2)c2sc(CN3CCN(CC4CC4)CC3)cc2n1,0.883,0.947,0.634,0.711
CC(CN1c2ccccc2Sc2ccccc21)N(C)C (stereo unspecified) [Promethazine HCl],0.872,0.945,0.667,0.956
CCOC(=O)C1=C(C)NC(C)=C(C(=O)OC)C1c1cccc([N+](=O)[O-])c1 (stereo unspecified) [Nitrendipine],0.977,1.1,0.721,0.945
COC1(c2sc3c(N4CCOCC4)nc(-c4cnc(N)nc4)nc3c2C)COC1,0.138,0.183,0.15,0.117
COc1ccc(-n2nc(C(N)=O)c3c2C(=O)N(c2ccc(N4CCCCC4=O)cc2)CC3)cc1 [Apixaban],1.02,1.05,0.992,1.07
COc1ccc(C(C)=O)c(O)c1 [Paeonol],0.904,1.08,0.775,1.11
CC(C)[C@H]1CC[C@H](C(=O)N[C@H](Cc2ccccc2)C(=O)O)CC1 [Nateglinide],1.01,0.99,0.838,0.991
Nc1cccc(-c2cc3c(Oc4cccc(O)c4)ncnc3[nH]2)c1,1.03,1.24,0.436,0.462
COc1c(O)cc2c(c1O)[C@@H]1O[C@H](CO)[C@@H](O)[C@H](O)[C@H]1OC2=O [Bergenin],0.911,1.15,0.973,1.04
CC(C)c1nc(CN(C)C(=O)N[C@H](C(=O)N[C@@H](Cc2ccccc2)C[C@H](O)[C@H](Cc2ccccc2)NC(=O)OCc2cncs2)C(C)C)cs1 [Ritonavir],0.99,1.17,0.822,1.07
COc1ccccc1OCCNCC(O)COc1cccc2[nH]c3ccccc3c12 (stereo unspecified) [Carvedilol],0.852,1,0.555,0.739
CC1CCc2cc(F)cc3c(=O)c(C(=O)O)cn1c23 (stereo unspecified) [Flumequine],1.01,1.09,0.991,1.17
CCCCOc1ccc(OCCCN2CCOCC2)cc1 [Pramoxine HCl],1.07,1.09,0.971,1.06
C[C@@H](O)[C@H]1C(=O)N2C(C(=O)OCOC(=O)C(C)(C)C)=C(SC3CN(C4=NCCS4)C3)[C@H](C)[C@H]12 [Tebipenem Pivoxil],0.892,1.07,0.837,1.02

SMILES,fractional viability [1],fractional viability [2],fractional viability [3],fractional viability [4]
CCN1CCCC1CNC(=O)c1cc(S(=O)(=O)CC)c(N)cc1OC (stereo unspecified) [Amisulpride],1.03,1.03,0.958,1.02
Nc1nc(N)nc(-c2cc(Cl)ccc2Cl)n1 [Irsogladine],0.933,1.02,1.16,1.02
CCCS(=O)(=O)Nc1ccc(F)c(C(=O)c2c[nH]c3ncc(Cl)cc23)c1F,1.12,1.16,0.552,0.824
CNC(=O)CN1CCC(Oc2cc3c(Nc4cccc(Cl)c4F)ncnc3cc2OC)CC1 [AZD8931 (Sapitinib)],1.09,1.2,0.92,1.07
Nc1ncnc2c1c(-c1cccc(OCc3ccccc3)c1)cn2C1CC(CN2CCCC2)C1 (stereo unspecified),0.983,0.895,0.109,0.0818
O=C(Nc1cccc(Cl)c1)Nc1ncc(CCNc2ncnc3ccsc23)s1 [SNS-314 Mesylate],0.705,0.722,0.644,0.404
CCc1c(C(=O)NCCc2ccc(N3CCCCC3)cc2)[nH]c2ccc(Cl)cc12,0.749,1.01,0.923,0.991
CN1CCN(c2ccc(C(=O)Nc3n[nH]c4ccc(Cc5cc(F)cc(F)c5)cc34)c(NC3CCOCC3)c2)CC1 [Entrectinib (RXDX-101)],0.597,0.771,0.0511,0.0303
COc1ccc(/C=C/C(=O)C2(C(=O)/C=C/c3ccc(OC)c(OC)c3)CCCCC2)cc1OC,0.183,0.264,0.0823,0.108
Cn1c(=O)c(F)c(Nc2ccc(I)cc2F)c2c(=O)n(C[C@@H](O)CO)cnc21,0.209,0.2,0.154,0.156
COc1ccc(-c2cc3c(C)nc(N)nc3n([C@H]3CC[C@H](OCCO)CC3)c2=O)cn1,0.141,0.165,0.0585,0.0406
"CC(C)(C)C#Cc1cc(N(C(=O)[C@H]2CC[C@H](C)CC2)[C@H]2CC[C@H](O)CC2)c(C(=O)O)s1 [VX-222 (VCH-222, Lomibuvir)]",0.983,1.03,0.818,0.95
CC(C)N(CCC(=O)c1ccc2ccccc2c1)Cc1ccccc1,0.765,0.892,0.908,0.806
CCOC(=O)c1ccc(C#Cc2ccc3c(c2)C(C)(C)CCS3)nc1 [Tazarotene],0.749,1.01,0.882,1.12
CCC(C)(C)c1ccc(CC(C)CN2C[C@@H](C)O[C@@H](C)C2)cc1 (stereo partly specified) [Amorolfine HCl],0.921,0.962,0.707,0.927
CCCNS(=O)(=O)Nc1ncnc(OCCOc2ncc(Br)cn2)c1-c1ccc(Br)cc1 [Macitentan],0.935,1.04,0.78,0.81
CCOc1nc2cccc(C(=O)OC(C)OC(=O)OC3CCCCC3)c2n1Cc1ccc(-c2ccccc2-c2nn[nH]n2)cc1 (stereo unspecified) [Candesartan Cilexetil],0.922,1.22,0.76,1.1
CCN1CCC[C@H]1CNC(=O)c1cc(S(N)(=O)=O)ccc1OC [Levosulpiride],1.02,1.01,0.922,1.03
Nc1ccc(S(N)(=O)=O)cc1 [Sulfanilamide],0.895,1.17,0.899,1.05
CC(C)(Oc1ccc(C2CC2(Cl)Cl)cc1)C(=O)O (stereo unspecified) [Ciprofibrate],0.986,1.13,0.83,1.18

SMILES,fractional viability [1],fractional viability [2],fractional viability [3],fractional viability [4]
N#CC(=C(/N)Sc1ccccc1N)/C(C#N)=C(\N)Sc1ccccc1N,1.13,1.02,0.859,1.01
Cc1[nH]c(/C=C2\C(=O)Nc3ccc(S(=O)(=O)Cc4c(Cl)cccc4Cl)cc32)c(C)c1C(=O)N1CCC[C@@H]1CN1CCCC1,0.317,0.279,0.0474,0.0167
NC(=O)[C@@H](CCC(F)(F)F)N(Cc1ccc(-c2ncon2)cc1F)S(=O)(=O)c1ccc(Cl)cc1,0.818,1.04,0.638,0.822
COc1ccc(CNCc2cccc3ccccc23)cc1,0.994,1.09,0.795,1.05
C=CCN1CCCC1CNC(=O)c1cc2nn[nH]c2cc1OC (stereo unspecified) [Alizapride HCl],0.869,1.2,0.83,1.06
CC(C)c1onc(-c2c(Cl)cccc2Cl)c1COc1ccc(/C=C/c2cccc(C(=O)O)c2)c(Cl)c1,0.953,1.1,0.781,1.09
NC(=O)CCCSc1nc(N)nc(-c2c(Cl)cc3c4c(cccc24)COC3)n1,0.91,0.97,0.915,0.789
Nc1nc(Nc2ccc(S(N)(=O)=O)cc2)nn1C(=O)c1c(F)cccc1F,0.583,0.742,0.255,0.282
O=C(NCc1ccc(Oc2ccccc2)cc1)c1nc(-c2cc(Br)c(O)c(Br)c2)no1,0.997,1.06,0.296,0.407
CCCCCCCCCCCCCCCC[N+](C)(C)C [Cetrimonium Bromide (CTAB)],0.311,0.295,0.0593,0.0171
Cc1c(Cn2c(C)nc3c(C(=O)O)cc(N4CCOCC4)cc32)cccc1C(F)(F)F,0.754,0.989,0.83,0.849
S=c1nc[nH]c2nc[nH]c12 [6-Mercaptopurine (6-MP) Monohydrate],0.741,0.561,0.738,0.731
NCc1c[nH]c(=S)n1[C@H]1CCc2c(F)cc(F)cc2C1 [Nepicastat (SYN-117) HCl],0.973,1.11,0.953,0.993
NC(=O)c1cccnc1 [Nicotinamide (Vitamin B3)],0.923,1.16,0.82,1
Nc1nccs1 [Aminothiazole],0.867,1.05,0.896,0.973
Cn1c(=O)c2c(ncn2CC(O)CO)n(C)c1=O (stereo unspecified) [Dyphylline],1.1,0.936,1.01,1.01
CCCc1nc(C(C)(C)O)c(C(=O)OCc2oc(=O)oc2C)n1Cc1ccc(-c2ccccc2-c2nnn[nH]2)cc1 [Olmesartan Medoxomil],0.907,0.929,1.1,1.02
CC(C)(C)c1ccc(S(=O)(=O)NCc2ccc(C(=O)Nc3cccnc3)cc2)cc1,0.0955,0.074,0.0667,0.0514
CO[C@H]1C(=O)[C@]2(C)[C@@H](OC)C[C@H]3OC[C@@]3(OC(C)=O)[C@H]2[C@H](OC(=O)c2ccccc2)[C@]2(O)C[C@H](OC(=O)[C@H](O)[C@@H](NC(=O)OC(C)(C)C)c3ccccc3)C(C)=C1C2(C)C [Cabazitaxel],0.262,0.283,0.24,0.269

# Reference: the supplement of paper PMC5919970
